Values marked as one replicate rest on one cluster of the flow cell; about a third of the high ones do not repeat.
System: ATP
Assay: switch fluorescence ratio, 500 uM ATP over buffer (Cy3 cluster intensity, sum of 5 cycles each) (fold (ratio)); higher = stronger signal-on switching upon ATP binding; sequences stand for … in TCGTCGGCAGCGTCAGATGTGTATAAGAGACAGTTTTTTTTTTTTTTTTTTTTTTTTT…TC
Settings: aptamer strand: ATP DNA aptamer (quencher-CACCTGGGGGAGTATTGCGGAGGAAGG + anchor), 100 nM annealed; ATP concentration: 500 uM; one replicate
Method in brief: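 Clusters with intensities outside 100-1000 RFU were excluded. The remaining Cy3-labelled switching-strand clusters on a modified Illumina MiSeq flow-cell had been annealed to 100 nM quencher-labelled ATP aptamer and imaged in selection buffer, then after 15 min with 500 uM ATP at 22 °C, for five cycles separated by NaOH stripping and re-annealing. The fluorescence ratio, averaged per switch-domain sequence, is each cluster's summed target-cycle Cy3 intensity over its summed buffer-cycle Cy3 intensity.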
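Further: ATP exposure 15 min at 22 °C before imaging.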

Sequence	switch fluorescence ratio
TATACCAGAC	1.25
CAACTGGGCG	1.03
TCCGACATAT	1.14
GGCGGTGTTG	1.01
TATCTATAAA	1.03
GGGTTATGAT	0.98
CGTTAAACAT	1.05
TGGGGGGTAC	1.09
TTCATAATTC	1.03
AATGTTCTCG	0.982
TTGCTAACTT	0.945
GATGTACTTA	0.964
ATGCGTGGAG	0.976
TTACAGCGTA	1.07
TACTGGTAGC	1.03
GCCGAATCAC	1.01
ACACGGATAA	0.983
ACTAGGTGTT	1.28
ATGCAATGTA	1.05
ACGATTCGGT	0.995
CAGGGACTGC	1.03
CCCGAAGT	1.08
CATCGCTATT	1.04
AACGGTCGTA	0.965
TTTGTTGGTT	1.03
TGGTTGAGAA	1

Sequence	switch fluorescence ratio
GCGGTAATGT	0.955
AATGATCCTG	0.993
AGTCCCCGCT	1.44
CAAGTAACT	1.01
CTAATCAGTG	1.04
CCGGGTCGAG	1.01
ACGTAGGCT	1.07
AGATTGTAGT	0.99
AATATTCACA	1.04
GGGAGATTTA	1.01
TCGTTACAAT	1.04
ACTTAGCGAC	6.42
ACCAGCTGAT	0.982
GCCGAAATTG	1
CAGTTAAGGC	0.886
GGGGAGTATG	0.98
GAGTTCAAGC	0.984
GCGCAATGTA	1.31
TGCAGCTACT	1.69
GCCGTGGTAG	1.01
CGCGAATGGG	1.03
ACTTATTTGA	0.994
CCGGGTAGTG	1.03
CCAGGTTGGT	1.28
CTGGACGAGC	1.08
GGTATTATAG	1.01

Sequence	switch fluorescence ratio
ACCAAAAACG	1.11
TAATCAGGGT	0.994
AGGTCCGAGA	1.03
ATGCCCAACA	0.948
AGAGCGGAGT	0.988
GCGAGGTGGC	1.02
TCCCGCGTCT	1.17
AATTTCTGTT	1.02
TTCCTGGGCG	1.07
TAGTACTTAA	0.998
GAGGGCGAGA	1.01
TCGCAGTTTG	1.01
TCAGTTGAGA	1
CGATACCTGC	1.08
GTTGCTCTAG	0.983
AAGCTAGGTG	1.56
AACAAGGCAG	1.02
CCTATGTGCG	0.977
ATCCTCATAG	1.1
CAGTATGCAA	1.23
ATCGGTCGAG	1.01
CCGTTCGTAT	1.2
CACTACGGGG	1
TCTCGCCCTT	1.59
TAGTTACGGA	1.07
ATTCGATA	0.984

Sequence	switch fluorescence ratio
GTAATGGCAC	1.04
TGTCAATTTT	1.04
ACACAGGACT	1.13
ACTAATCGC	1.07
GCCACTACTA	1.09
CCGCCGGAGA	1.6
TTCCCTAACA	0.958
CCGATACTGG	1.2
ATCCGGCAAT	2.7
CAAACTTTAC	1.26
GGCCTGCCGC	1.03
TCCTCTACGT	1.19
TTTCACATGC	1.02
GTGGTTTCG	0.986
GATCTTCAAC	0.994
AACGTGTCC	1.06
TCAGCGGACG	1.07
CCAAGTGAAG	0.971
CATATGCGCG	1.02
TGCCTTGCGG	1.01
ACTCACTACT	1.28
AGTTATAAT	1.04
GGATCTGCGA	1.03
GCCCGTGATA	1.71
AGGGCGCAC	1.02
AGACAGCTGG	1.06

Sequence	switch fluorescence ratio
GCGGTTGCGA	0.976
ACGATGGTAG	1.05
ACGTCTGTAC	2.22
GAAGATTAGC	0.988
TGATTGGCGA	1.2
GCAGGTCGTC	0.994
CACTTTAACC	1.11
GGGAAGCTCG	0.95
TATCGTGTAG	1.01
TTAGAACAA	1.04
GGGGTGAATT	0.963
ACCATAGTTT	1.03
GGGGGCTCTT	0.985
GAGGAGTAGA	1.01
AAAGCAAGAT	1.82
TTATGTATCT	0.971
AAAAGAGGAT	1.01
AGTAAATTG	0.943
ATTACTCAAT	0.966
GATCCTGCTC	1.08
GATGGCAATG	1.19
TTAAAAACTA	1.04
TGAGCCTCAG	0.966
ATCGGACACT	1.04
CACTGGGTAT	0.986
CTGAGACTTC	1.01

Sequence	switch fluorescence ratio
CACTAATCTT	1.02
GTTCCCTGTG	1.05
CGTTTAGCCA	0.964
TTCTTGGCG	0.984
AACAGGGGC	0.929
GTGGTCTTGC	0.997
GGACGGAATT	1.1
ACGCTTTACA	1.27
AAGTGTTTGA	1.01
GAATGACGCT	0.993
TCCATTCATC	1.01
CTGGGATGAT	0.974
AAGAGTATTT	0.984
TCTTTTAAAA	1.12
GAGAGAGCTT	0.978
GATTCCGGGT	1.04
TCAGAGCGCT	1.04
GTTCGACCAA	1.05
GGAACTTGCG	0.961
AGACCGCGGC	0.968
TATTGGGAAC	0.991
TACAAGATAA	1
CGAGAAGGGA	0.966
